From PubChem BioAssay AID1963576 (National Center for Advancing Translational Sciences (NCATS), 2024)
The whole screen tested about 46,000 compounds, of which about 60 (0.1%) were called active. Not shown: some 3% with an inconclusive outcome. The call rests on the fitted dose curve; in most records, active means well fitted inhibition curve with a large enough effect; inconclusive means small, poorly fitted or top-dose-only effect; inactive means no such curve, though single readings can be large or run the other way. Some of the results follow.

assay: Primary qHTS assay for Inhibitors of ovarian cancer metastasis using an organotypic tumor microenvironment (TME) model.; further: nearly all actives have a fitted effect of over 65% in size;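 on activity change, negative = inhibition: plate controls were DMSO wells for no effect and tomatine positive control wells for full effect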; conditions: SKOV3ip1-GFP adhesion/invasion on 3D omental model, fluorescence; series mostly up to 45.8 µM; activity change, negative = inhibition: at the top concentration
In short: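 Primary human omental fibroblast/mesothelial 3D culture pre-formed 48 h. SKOV3ip1-GFP cells added with compounds (0.36-46 umol/L), incubated 2 h RT/16 h 37 C, fixed; GFP cells quantified at 488/509 nm.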

Activity change, negative = inhibition, inactive:
COc1ccc(NC(=O)c2cc(-c3ccccc3F)no2)cc1 6.6%
O=C(NCCCN1CCN(c2cccc(Cl)c2)CC1)c1ccc2nc(Cc3ccccc3)oc2c1 -20.6%
COc1cc2c(cc1OC)n(CC(=O)c1ccc(C)cc1C)c(=O)n1nc(CCn3nc(C)cc3C)nc21 -1.89%
Cc1nn2c(C)c(C(=O)N3CCN(c4ccc(Cl)cc4)CC3)cnc2c1-c1ccc(F)cc1 -20.2%
CCOC(=O)c1c(C)[nH]c(C)c1S(=O)(=O)N1CCC(C(=O)N2CCN(c3ccc(F)cc3)CC2)CC1 -11.4%
Cc1ccc2c(=O)cc(CSc3ncn[nH]3)[nH]c2c1C -1.93%
Cc1ccnc(NS(=O)(=O)c2ccc(NC(=O)c3ccc(C)c(C)c3)cc2)n1 -0.939%
Cc1cccc(C)c1OCC(=O)N(Cc1ccco1)Cc1ccco1 -13.8%
C=Cc1ccc(Cn2c(C)c(CNCCc3ccc(OCC)cc3)c(C(=O)O)c2C)cc1 -3.7%
CN1CCN(CCNC(=O)c2cnn(-c3ccc(F)cc3)c2C2CCN(C(=O)OC(C)(C)C)CC2)CC1 6.5%
O=C(CCCN1C(=O)c2cccnc2Oc2ccc(Cl)cc21)NCc1ccc(F)cc1 -4.24%
CCCCNC(=O)c1ccc2c(c1)N=C(CC)c1ccccc1S2 5.76%
CCc1cccc(CC)c1NC(=O)c1c(C)oc2ccc(O)c(CN3CCCC3)c12 -2.67%
O=C(CN1C(=O)C2(SCC(=O)N2c2ccc(F)cc2)c2ccccc21)NC1CCCCC1 (stereo not given) 4.78%
CCOc1ccc(-n2cc(-c3ccccc3)c3c(NC4CCCC4)ncnc32)cc1 -2.01%
Cc1ccc2c(c1)C(=O)OC(C(=O)Nc1ccccc1C(=O)O)C2 (stereo not given) 0.0475%
O=C(Nc1ccccc1)Nc1nnc(SCC(=O)N2CCCCC2)s1 0.0448%
CCCCc1ccc(NC(=O)CSc2nc(=O)[nH]c3c2CCCC3)cc1 -0.253%
Cc1cc2oc(C(=O)N(Cc3ccc(N(C)C)cc3)Cc3ccco3)c(C)c2cc1Cl -6.3%
COC(=O)CCN(c1ccccc1)C(CNS(=O)(=O)c1ccccc1)c1ccccc1 (stereo not given) 2.35%
O=C(Nc1cccc(C(=O)OCc2cc(=O)n3nc(C4CC4)sc3n2)c1)c1cccc(Cl)c1 6.5%
CCOc1ccc(CCNC(=O)Cn2c(-c3cccs3)cc3ccccc32)cc1OCC -1.56%
Cc1ccc(C)c(NC(=O)CSc2ccc3nc(-c4ccccc4)cn3n2)c1 9.79%
COc1cccc(N2CC(NC(=O)COc3ccccc3F)CC2=O)c1 (stereo not given) -24.3%
CCOc1ccc(NC(=O)c2cnc3sc(N4CCOCC4)nn3c2=O)cc1 -6.04%
Oc1cc2c(cc1O)C1c3ccc(O)c(O)c3OCC1(O)C2 (stereo not given) 5.04%
O=C(CSc1nc2c([nH]c3ccccc32)c(=O)n1-c1ccccc1F)Nc1cccc(C(F)(F)F)c1 47.9%
O=C1C(=O)N(C2CCN(C(=O)c3cccc(Cl)c3)CC2)CCN1Cc1ccc(F)cc1 2.95%
CCc1ccc(CNC(=O)c2ccc(-c3nc(CSc4ccc(C)cc4)c(C)o3)cc2)cc1 1.25%
CCSc1nnc(NC(=O)c2cc(=O)c3cc(C)ccc3o2)s1 -4.83%
O=C(CSc1oc(-c2ccc(F)cc2)nc1S(=O)(=O)c1ccccc1)NC1CCCCC1 -7.18%
O=C(Nc1ccccc1Br)c1cc(CN2CCCC2)on1 20.5%
COc1ccc(-c2nnc(SCC(=O)Nc3c(C)cccc3C)nc2-c2ccc(OC)cc2)cc1 -11.1%
CC(CCc1ccccc1)NC(=O)Cn1ncc2c3ccccc3n(Cc3ccccc3)c2c1=O (stereo not given) 0.79%
COc1cccc(CNC(=O)CCn2cnc3ccccc3c2=O)c1 5.45%
COc1ccccc1CNC(=O)Cn1c(=O)nc(-c2ccccc2F)c2cc(Cl)ccc21 -5.62%
Cc1ccc(-n2c(=O)c3cccnc3n2CC(=O)Nc2cc(C)cc(C)c2)cc1 3.19%
CC(C)c1ccc(NC(=O)Cn2c(=O)n(CC3CCC(C(=O)NCCc4ccccc4)CC3)c(=O)c3ccccc32)cc1 (stereo not given) 9.8%
Cc1ccc(S(=O)(=O)C2(C(=O)Nc3ccc(Cl)c(C(F)(F)F)c3)CC2)cc1 -1.44%
Cc1ccc(/C=C(\C#N)c2nc(-c3ccc(-c4ccccc4)cc3)cs2)cc1 -7.48%
CCOc1ccccc1CNC(=O)CCc1c(C)nn(-c2ccc(N3CCCC3)nn2)c1C -4.92%
Cc1ccc(CNc2ccc(-c3nc(-c4ccncc4)no3)cc2[N+](=O)[O-])cc1 -5.21%
Cc1cccc(N2CCN(C(=O)CS(=O)(=O)c3cccc4nsnc34)CC2)c1C 10.6%
Cc1ccc(Cl)cc1N1CCN(C(=O)C2CCC(CNS(=O)(=O)c3cccs3)CC2)CC1 (stereo not given) -1.12%
O=C(NCCCCN1CCOCC1)c1cc2ccccc2o1 -6.8%
CCc1ccccc1N(CC)C(=O)c1c(C)oc2ncn(C)c(=O)c12 -3.07%
COc1ccccc1N1CCN(C(=O)c2cc(CC(C)C)on2)CC1 32.4%
CCc1ccccc1NS(=O)(=O)c1ccc2[nH]cc(C(=O)N(CC(C)C)CC(C)C)c(=O)c2c1 1.76%
Cc1ccc2nc(COc3ccccc3NC(=O)COc3ccc(F)cc3)cc(=O)n2c1 -0.725%
Cc1ccc(-c2nc(S(=O)(=O)c3ccccc3)c(N3CCN(c4ccccc4)CC3)o2)cc1 7.1%
Oc1ccc(-c2ccc(-c3cc(Nc4cccc(CNC5CC5)c4)n[nH]3)cc2)c(O)c1 19.7%
CCc1ccc2nc(N(CCN(CC)CC)C(=O)c3cccs3)sc2c1 7.43%
COc1ccc(-c2nc(SCC(=O)Nc3ccc4c(c3)OCCO4)c(-c3ccc(F)cc3)[nH]2)cc1 -14.2%
O=C(Nc1ccccc1C(=O)OCc1cc(=O)n2c3c(sc2n1)CCCC3)c1ccc(F)cc1 0.79%
COc1cccc(C(=O)Nc2nc3nc(-c4ccccc4)cc(=O)n3[nH]2)c1 1.3%
COc1cccc(CNC(=O)C2=C(C)C(=O)OC23CCN(C(C)=O)CC3)c1OC -0.723%
CC(=O)c1ccc(NC(=O)CN2C(=O)CN(C)C(=O)c3ccccc32)cc1 -6.05%
CCOC(=O)c1c(-c2ccc(C)cc2)csc1NC(=O)c1cc(=O)c2cc(C)ccc2o1 -6.3%
O=C(Cn1c(=O)nc(-c2ccccc2)c2ccccc21)NCCc1ccccc1 19%
O=C1c2oc3ccccc3c(=O)c2C(c2cccc(O)c2)N1c1nncs1 (stereo not given) -9.53%
CCC(C(=O)NCc1cc(OC)ccc1OC)n1nc(C)c2sc3ccccc3c2c1=O (stereo not given) -2.59%
Fc1ccc(NCc2nnc3n2CCCCC3)cc1Cl 3.46%
COc1ccc(OC)c(CNC(=O)C2CCCN(c3ncnc4onc(-c5ccc(F)cc5)c34)C2)c1 (stereo not given) 5.6%
COc1ccccc1C(=O)Nc1ccc2nc(SCCOc3ccccc3C)sc2c1 6.69%

outcome, inactive:
O=S(=O)(c1ccc(-c2cnc(C3CC3)o2)cc1)N1CCN(c2ccccc2F)CC1
Cc1ccc2nc(NC(=O)c3ccc(S(=O)(=O)N4CCC(C)CC4)cc3)sc2c1
Cc1ccccc1CN1C(=O)c2ccccc2Sc2ccc(C(=O)NCCc3ccccc3)cc21
CCn1cc(C(=O)N2CCN(c3cccc(Cl)c3)CC2)c(=O)c2cc(S(=O)(=O)N3CCC(C)CC3)ccc21
Cc1ccc(N2CC(NC(=O)c3cccs3)CC2=O)cc1 (stereo not given)
CC1=C(c2ccc(C)c(C)c2)S(=O)(=O)N(Cc2ccc(C(=O)Nc3cc(F)ccc3F)cc2)C1=O
Cc1ccc(N2C(=O)CSC23C(=O)N(CC(=O)NCc2ccccc2)c2ccccc23)cc1 (stereo not given)
CCOc1ccc(S(=O)(=O)N2CCN(Cc3nc4ccc(C)cc4o3)CC2)cc1
COc1cc2c(cc1NC(=O)c1ccccc1C)n(C)c(=O)n2C
COc1cc(C(=O)NCCc2sc(-c3cccc(F)c3)nc2C)cc(OC)c1OC
Cc1nc2cc(-c3cccc(F)c3)nn2c(C)c1CCC(=O)NC(C)c1ccccc1 (stereo not given)
CCOC(=O)c1ccc(NC(=O)c2oc3c(c2C)-c2nn(Cc4ccccc4Cl)cc2CC3)cc1
CC(C)CNc1ncnc2onc(-c3ccc(Cl)cc3)c12
O=C(CCN1C(=O)c2ccccc2Sc2ncccc21)Nc1ccc(F)cc1
COc1cccc(-c2cc(C(=O)NCc3ccc(F)cc3)no2)c1
Cc1c(C(=O)N2CCOCC2)oc2c1-c1nn(CC(=O)NCc3cccc(F)c3)cc1CC2
COC(=O)c1ccc(Cl)cc1NC(=O)NCCc1c(C)nn(C)c1C
CCOC(=O)c1cccc(NC(=O)CCS(=O)(=O)c2ccc3c(c2)CC(=O)N3C)c1
CCOC(=O)c1c(C)[nH]c(C)c1S(=O)(=O)N1CCC(C(=O)Nc2cc(C)ccn2)CC1
CC(C)(C)C1CCc2c(sc(NC(=O)Cn3nnc(-c4ccccc4Cl)n3)c2C#N)C1 (stereo not given)
COc1ccc(-n2ccnc2SCC(=O)Nc2ccc3c(c2)OCO3)cc1
Cc1cccc(C(C)C)c1NC(=O)Cn1c(=O)oc2cc(S(=O)(=O)N3CCCC3)ccc21
COc1ccc(NC(=O)C2CCN(S(=O)(=O)c3ccc4c(c3)CCCC(=O)N4)CC2)cc1OC
COc1cc(Nc2nc(SCc3ccc(Cl)cc3)nc3ccccc23)cc(OC)c1
COc1ccc(-c2oc3ncn4nc(COc5cccc(C)c5C)nc4c3c2-c2ccc(OC)cc2)cc1
O=C(COCc1cc(-c2cccs2)on1)N1CCN(c2ccccc2)CC1
COc1cc(C(=O)Nc2ccc(NC(=O)c3ccc(C(C)(C)C)cc3)cc2)cc(OC)c1OC
COc1cccc(C(=O)N2CCC(C(=O)Nc3cccc(Cl)c3)CC2)c1
Cc1cccc(CNC(=O)c2ccc(N3Cc4ccccc4Oc4ncccc43)s2)c1
CN(C)c1cccc(C(=O)N2CCC(c3c[nH]c4ccccc34)(c3c[nH]c4ccccc34)CC2)c1
CC(C)c1ccc(N2C(=O)CSC23C(=O)N(Cc2cccc(F)c2)c2ccccc23)cc1 (stereo not given)
